The campaign covered roughly 420,000 compounds. About 64,000 (15%) were called active. Inconclusive results, whose numbers are uncertain, are shown with a selection of clear calls. Calls come from the whole dose curve; as a rule, active = well fitted inhibition curve with a large enough effect; inconclusive = small, poorly fitted or top-dose-only effect; inactive = flat fitted curve, though single readings scatter. Potencies of inconclusive entries are left out as doubtful fits.
Assay: qHTS for Inhibitors of human tyrosyl-DNA phosphodiesterase 1 (TDP1): qHTS in cells in absence of CPT; note: nearly all actives have a fitted effect of over 55% in size
Conditions: DT40 Tdp1-/- hTDP1 cells, no CPT, ATP luminescence, 48 h; activity change, negative = growth inhibition: at 46.2 µM (top of the series) unless noted
How it was run: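 DT40 Tdp1-/-;hTDP1 cells, no CPT (DMSO vehicle only), 400 cells/well; compounds pin-transferred; ≥48 hr, 37 °C; CellTiter-Glo 30 min RT dark, luminescence read.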
% is set by controls: 0 for no effect and ±100 for the full control effect; potency is the fitted concentration of half-maximal effect; tags give direction and shape of the fitted curve.

Row | Structure (SMILES) | Potency | activity change, negative = growth inhibition
1 | NS(=O)(=O)c1ccc(N/N=C/c2ccc(O)cc2O)c([N+](=O)[O-])c1 | inconclusive [inhibitor, single point] | 
2 | c1ccc2c(c1)[nH]c1c3ccccc3sc21 | inconclusive [inhibitor, single point] | 
3 | CC(=O)Nc1ccc(OCCOc2ccccc2C(C)=O)cc1 | inactive | 
4 | Cc1ccc2cccnc2c1N | inactive | 
5 | O=C(CCN1C(=O)c2ccccc2C1=O)N1CCN(c2ccccn2)CC1 | inactive | 
6 | CC(C)(C)CCN1CCC(CN2CCNC(=O)C2=O)CC1 | inactive | 
7 | CCCOc1ccc(C2C(=O)N(C3CCC(C)CC3)CC(=O)N2CCc2ccccc2)cc1OC (stereo unspecified) | inconclusive [inhibitor, partial curve] | 
8 | O=C1OC(Oc2ccc(Br)cc2)(c2ccccc2)c2ccccc21 (stereo unspecified) | inactive | 
9 | NC(=O)N1c2ccccc2C=Cc2ccccc21 |  | inconclusive: -36.8% [inhibitor]
10 | Cc1cccc(-n2ncc3c(NCCc4ccc(S(N)(=O)=O)cc4)ncnc32)c1 | inconclusive [inhibitor, single point] | 
11 | Cc1cccc(C(=O)N(CC(=O)Nc2sc(C)c(C)c2C(N)=O)C2CCCC2)c1 | inconclusive [inhibitor, partial curve] | 
12 | CNCCOc1ccccc1-c1ccccc1 | inconclusive [inhibitor, single point] | 
13 | Cc1sc2ccccc2c1CNC[C@H]1O[C@@H](n2cnc3c(N)ncnc32)[C@H](O)[C@@H]1O | inactive | 
14 | CCc1ccccc1N(C(=O)c1cccs1)C1C=CS(=O)(=O)C1 (stereo unspecified) | inconclusive [inhibitor, single point] | 
15 | CCN(CC)CCNCc1cc(Cl)c(OCC(=O)Nc2ccccc2)c(OC)c1 | active: 23.1 µM | 
16 | O=[N+]([O-])C(=C1Nc2ccccc2N1)/C(Cl)=C(/Cl)Br | inconclusive [inhibitor, single point] | 
17 | Cc1ccc(Cn2c(=N)c(C(=O)NCC3CCCO3)cc3c(=O)n4ccccc4nc32)cc1 (stereo unspecified) | inconclusive [inhibitor, single point] | 
18 | Cc1ccc(Sc2ccncc2S(N)(=O)=O)cc1 | inconclusive [inhibitor, single point] | 
19 | Cc1cc(S(=O)(=O)NCc2cccnc2)ccc1F | inactive | 
20 | O=C(c1ccc2c(c1)OCO2)N1CCc2ccccc2C1 | inconclusive [inhibitor, single point] | 
21 | CCCN(CC(=O)Nc1ccccc1C)C(=O)c1ccc(N2CCCCC2)c([N+](=O)[O-])c1 | inconclusive [inhibitor, single point] | 
